Here are results for four molecules from paper PMC11161652, “ASXLs binding to the PHD2/3 fingers of MLL4 provides a mechanism for the recruitment of BAP1 to active enhancers” (Nature Communications, 2024).

Protein sequences, listed by entry. Tags and fused reporters are not part of them. Lines headed by an entry give the natural chain unless they say otherwise; changes in a name come on top. Chains listed by the source or under a name are the forms on record and can include a tag or linker. Residues count along the entry.
PHD2 and PHD3 fingers of human MLL4 (aa 227-324) (O14686, residues 227-324): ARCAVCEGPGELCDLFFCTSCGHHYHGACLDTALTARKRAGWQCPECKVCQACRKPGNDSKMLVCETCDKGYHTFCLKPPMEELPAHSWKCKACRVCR
MLL4_(PHD2/3) K274E (O14686, form named): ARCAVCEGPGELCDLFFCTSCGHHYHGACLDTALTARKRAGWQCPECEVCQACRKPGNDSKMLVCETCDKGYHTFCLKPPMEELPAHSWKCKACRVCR
MLL4_(PHD2/3) D257K/D285K (O14686, form named): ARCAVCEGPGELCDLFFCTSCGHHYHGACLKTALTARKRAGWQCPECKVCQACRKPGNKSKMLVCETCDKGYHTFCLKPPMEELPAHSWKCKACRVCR
MLL4_(PHD2/3) V290K (O14686, form named): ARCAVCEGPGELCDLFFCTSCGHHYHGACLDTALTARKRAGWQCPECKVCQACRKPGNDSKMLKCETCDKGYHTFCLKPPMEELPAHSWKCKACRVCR

The target of experiment [1] is T1, GST-MLL3_(PHD2/3) D372K/D400K (human) (UniProt Q8NEZ4).
T1 sequence: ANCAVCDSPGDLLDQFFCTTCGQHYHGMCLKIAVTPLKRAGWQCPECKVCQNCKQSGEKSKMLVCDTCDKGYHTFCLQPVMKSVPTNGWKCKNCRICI
Briefly: pull-down; about 9 μg GST-MLL3 PHD2/3 or GST-MLL4 PHD2/3 (WT or mutants) on GSH resin, incubated 3 h at 4 °C with lysate of HEK293FT cells expressing Myc-ASXL1, Myc-ASXL2 or Myc-ASXL2ΔMBH; 5 washes; western blot; only the target purified. Background: A western blot detects proteins with antibodies after separation by electrophoresis.

For experiment [2], the target named is T2, GST-MLL3_(PHD2/3), wild type (human) (UniProt Q8NEZ4).
T2 sequence: T1 sequence with K31D, K59D
The description is as above.

Experiment [3] addresses GST-MLL4_(PHD2/3), wild type (human) (UniProt O14686). Described as above.
Experiment [4] addresses PHD2 and PHD3 fingers of human MLL4 (aa 227-324) (human) (UniProt O14686). The experiment in a line: NMR titration; 1H,15N HSQC of 0.1 mM uniformly 15N-labelled WT or mutated MLL4 PHD2/3, MLL3 PHD2/3 or MLL3 PHD4; peptides or MLL3 PHD2/3 added stepwise; 298 K; 20 mM Tris pH 6.8, 150 mM NaCl, 3 mM DTT, 7% D2O; both purified.
The target of experiment [5] is T3, PHD4 finger of MLL3 (aa 464-520) (human) (UniProt Q8NEZ4).
T3 sequence: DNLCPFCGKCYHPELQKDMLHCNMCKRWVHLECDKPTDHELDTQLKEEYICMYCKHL
Described as above.

In experiment [6] the target is T3, PHD4 finger of MLL3 (aa 464-520) (human). Described as above. The source holds these as a separate data set.
Experiment [7] has as its target MLL4_(PHD2/3) K274E (human) (UniProt O14686). Described as above.
The target of experiment [8] is T4, MLL3_(PHD2/3) D372K/D400K (human) (UniProt Q8NEZ4).
T4 sequence: T1 sequence
The description is as above.

The target in experiment [9] is MLL4_(PHD2/3) D257K/D285K (human) (UniProt O14686). Described as above.
Experiment [10] addresses MLL4_(PHD2/3) V290K (human) (UniProt O14686). The description is as above.

Positions count from the first letter of the chain named. Where two headings read alike, the source gives them in different places. These are yes or no findings as the source states them, for the method shown. For some of these results: Binding seen in cells or lysates may run through a third protein. Some entries that bind do so weakly or less than the wild type. For some of these results: Where a sequence is shown, tags or fusion partners need not be part of it.

For “Myc-ASXL2, full length (from UniProt Q76L83 1-1435)”, the binding result is “no binding” in experiment [1], “binds” in experiment [2] and “binds” in experiment [3].

As to “ASXL2 peptide (aa 650-670) K661E (from UniProt Q76L83 650-670)”, in [4], the binding entry was “no binding”.

B1: PHD2 and PHD3 fingers of human MLL3 (aa 342-439) (domain or fragment, UniProt Q8NEZ4 342-439)
chain: T1 sequence with K31D, K59D
Regarding B1, in [5], the binding entry is reported as “no binding”.

B2: ASXL2 peptide (residues 650-670 of ASXL2) (peptide, UniProt Q76L83 650-670, looked up)
peptide: NRTGARTLADIKAKAQLVKAQ
notes: also called ASXL2 (aa 650-670); MBH of ASXL2; source: synthetic peptide (SynPeptide)
In the case of B2, the binding entry in experiment [6], in [7], in [8], in [9] and in [10] was “no binding” each time.
